{"source": "patent US7144991B2", "about": "“Streptavidin expressed gene fusions and methods of use thereof” (Aletheon Pharmaceuticals, Inc., priority 1999, dated 2006)", "molecules": {"B1": {"name": "huNR-LU-10 scFvSA: Fusion of humanized NR-LU-10 (anti-EGP40/EPCAM) scFv to genomic streptavidin, SEQ ID NO: 4, plasmid pEX94B (protein)", "chain": "MRKIVVAAIAVSLTTVSITAMADIQMTQSPSSLSASVGDRVTITCRASQGIRGNLDWYQQKPGKGPKLLIYSTSNLNSGVPSRFSGSGSGSDYTLTISSLQPEDFATYYCLQRNAYPYTFGQGTKLEIKISGGGGSGGGGSGGGGSSQVQLVQSGAEVKKPGASVKVSCKASGFNIKDTYMHWVRQAPGQGLQWMGRIDPANGNTKSDLSFQGRVTITADTSINTAYMELSSLRSDDTAVYYCSREVLTGTWSLDYWGQGTLVTVSSGSGSA[not shown - about 150 residues]", "modifications": "Predicted amino acid sequence for huNR-LU-10 single chain antibody-genomic streptavidin fusion."}}, "key": {"[1]": {"test_system": "SW-1222 human colon cancer xenografts", "conditions": "mouse, in vivo"}, "[2]": {"molecular_target": "T1, 0.1% NP40 membrane extract from the human carcinoma cell line LS-174 (antigen EGP40 or EPCAM) (Homo sapiens, UniProt P16422)", "T1 construct": "an 0.1% NP40 membrane extract from the human carcinoma cell line, LS-174 (ATCC #CL188); host or cells: LS-174 human carcinoma cell line (0.1% NP40 membrane extract)", "T1 sequence (P16422 24-314)": "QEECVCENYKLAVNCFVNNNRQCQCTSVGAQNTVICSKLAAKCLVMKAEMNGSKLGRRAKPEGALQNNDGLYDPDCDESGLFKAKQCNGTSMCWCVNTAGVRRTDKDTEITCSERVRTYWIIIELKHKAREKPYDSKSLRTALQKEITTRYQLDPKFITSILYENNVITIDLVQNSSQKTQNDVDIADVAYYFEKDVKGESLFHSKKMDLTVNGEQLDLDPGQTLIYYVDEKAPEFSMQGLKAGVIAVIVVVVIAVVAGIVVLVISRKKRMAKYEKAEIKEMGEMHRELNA", "assay": "HuNR-LU-10 competitive immunoreactivity ELISA", "type": "binding", "conditions": "relative to intact divalent humanized NR-LU-10 antibody; competition with peroxidase-labeled murine NR-LU-10", "experimental": "HuNR-LU-10 Competitive Immunoreactivity ELISA. Serial dilutions of the humanized NR-LU-10 whole antibody or the huNR-LU-10 fusion protein were allowed to compete with peroxidase-labeled murine NR-LU-10 whole antibody for binding to an 0.1% NP40 membrane extract from the human carcinoma cell line, LS-174 (ATCC #CL188). Following a log-logit transformation of the data in which curves were fit to the same slope, the concentration of competitor antibody that gave 50% inhibition (k) was calculated. Percent immunoreactivity was determined according the formula: k (fusion protein standard)/k (whole antibody standard)×100."}, "Biotin binding capacity": {"assay": "Biotin binding capacity", "conditions": "9-fold molar excess of [3H]biotin", "experimental": "(§1) Biotin Binding and Dissociation. Biotin binding capacity was determined by incubation of a known quantity of fusion protein with a 9-fold molar excess of [3H]biotin (NEN Research Products, Boston, Mass.). After removal of uncomplexed biotin using streptavidin-immobilized beads (Pierce Chemical; Rockford, Ill.), the amount of [^3H]biotin associated with the fusion protein was determined.\nas §1, with “Capacity.” for “and Dissociation.”, “[^3H]biotin” for “[3H]biotin”"}, "[3]": {"test_system": "SW-1222 human colon cancer xenografts", "assay": "Pretargeted biodistribution, blood clearance and tumor uptake with huNR-LU-10 scFvSA"}}, "data": [{"molecule": "B1", "values": [{"measurement": "Tumor AUC of 111In-DOTA-biotin", "setting": "[1]", "result": 1726}, {"measurement": "Percent immunoreactivity", "setting": "[2]", "result": "~225", "unit": "%"}, {"measurement": "Biotin binding capacity (average biotins bound)", "setting": "Biotin binding capacity", "result": 3.0, "unit": "biotins"}, {"measurement": "Concentration of 125I-huNR-LU-10 scFvSA radioactivity in blood and most well-perfused soft tissues", "setting": "[3]; 575 μg iv, sCA at 18 h, exceptions liver and tumor", "result": "very low"}, {"measurement": "Tumor to blood ratio", "setting": "[3]; by 24 hours after DOTA-biotin injection", "result": "several thousand"}, {"measurement": "Concentration of 111In-DOTA-biotin radioactivity in blood and all non-xenograft soft tissues", "setting": "[3]; pretargeted 111In-DOTA-biotin 1.0 μg, 3 h after sCA", "result": "very low"}, {"measurement": "Tumor to blood ratio", "setting": "[3]; two hours after DOTA-biotin injection", "result": "~100"}]}]}
